Out of some 28,000 compounds screened, about 410 (1.5%) were called active. Inconclusive results, whose numbers are uncertain, are shown with a selection of clear calls. Rule as the data show it: active = activation above about 52%; inconclusive = no clear call, values can overlap the other calls; inactive = below that.
Assay: mutant p53 pathway re-activators, primary screen, cell-based, SW480, luciferase, single point, HTS (AID 624151)
Conditions: SW480 PUMA-promoter luciferase, p53 mutant reactivation; at 9.98 µM; active compounds read high
In the case of CCc1ccc(OCCSc2nc(C)cc(=O)[nH]2)cc1, the activation is reported as active: 58.8%.
For COc1cc(C(=O)Nc2cccc(-c3nc4ncccc4o3)c2)cc(OC)c1OC, the activation was inconclusive: 55.7%.
With O=C(COc1ccc(C(=O)Nc2ccccc2Cl)cc1)Nc1cccc(C(F)(F)F)c1 the activation was inconclusive: 57.1%.
With Cc1ccc(S(=O)(=O)N(C)CC(=O)Nc2ccc3ccccc3c2)cc1 the activation was inconclusive: 53.1%.
With CSc1ccccc1NC(=O)CN(c1ccc(Br)cc1)S(C)(=O)=O the activation was inactive: -9.3%.
In the case of O=C(CCCC(=O)Nc1ccccc1)Nc1ccccc1, the activation is reported as inactive: -4.05%.
For Cc1ccc(NC(=O)c2ccc(OC(=O)CN3C(=O)c4ccccc4C3=O)cc2)cc1, the activation was inconclusive: 53.4%.
With COc1ccc(-c2nc3cc(C(C)C)ccc3o2)cc1NC(=O)COc1ccc(C)cc1 the activation was active: 63.7%.
With CCc1c(C)nc(Nc2nc(C)c3ccc(OC)cc3n2)[nH]c1=O the activation was inconclusive: 53.5%.
In the case of CC(C(=O)Nc1ccc(Oc2ccccc2)cc1)N1c2cccc3cccc(c23)S1(=O)=O (centres undefined), the activation is reported as inactive: 4.01%.
With COc1cc2c(cc1NC(=S)NCCc1ccc(OC)c(OC)c1)oc1ccccc12 the activation was inactive: -6.15%.
For CCOC(=O)c1c(CSc2cccc3cccnc23)nc2c3ccccc3ccn12, the activation was inconclusive: 52.1%.
For Cc1ccc(CCC(=O)Nc2ccc(/C=C/c3ccccc3)cc2)o1, the activation was inconclusive: 52.2%.
With C[C@@H]1CN([C@H](C)CO)C(=O)Cc2cc(N(C)C)ccc2O[C@@H]1CN(C)Cc1ccc(C(F)(F)F)cc1 the activation was inactive: 4.84%.
In the case of C[C@H](CO)N1C[C@H](C)[C@@H](CN(C)CC2CCCCC2)Oc2ccc(N(C)C)cc2C1=O, the activation is reported as inactive: 7.85%.
With CN(C)CCCN1C(=O)C(=O)C(C(=O)c2cccs2)C1c1ccc(Cl)c(Cl)c1 (centres undefined) the activation was inactive: -1.88%.
In the case of COc1cccc2c1OC1=C(C(=O)CC(C)(C)C1)C2CC(=O)c1ccc(O)cc1 (centres undefined), the activation is reported as inconclusive: 55.5%.
With COc1ccc(OC(C)C(=O)Nc2cc3oc4ccccc4c3cc2OC)cc1 (centres undefined) the activation was inconclusive: 50.3%.
With Cc1cc(OCC(=O)Nc2cccc(-c3nnc(-c4ccccc4)o3)c2)cc(C)c1Cl the activation was inconclusive: 50.4%.
With O=C(c1cccs1)n1nc(-c2ccccc2)nc1NCc1ccco1 the activation was active: 85.5%.
For COc1cccc(OC)c1C(=O)Nc1cccc(-c2nc3ncccc3o2)c1, the activation was inactive: 49.4%.
With COc1cc(NC(=O)C(C)Oc2ccc(Cl)cc2Cl)c(OC)cc1Cl (centres undefined) the activation was inconclusive: 54.6%.
With O=C(COc1ccc(Cl)cc1Br)Nc1cccnc1 the activation was inconclusive: 50.2%.
With Cc1cc(C(=O)CSc2nnc3ccccn23)c(C)n1-c1cc(Cl)ccc1Cl the activation was inconclusive: 55.7%.
For N#CC1c2ccc(Br)cc2C=CC1c1ccccc1 (centres undefined), the activation was inconclusive: 51.8%.
With N#C/C(=C/c1ccc(O)c(O)c1)C(=O)Nc1ccccc1 the activation was inconclusive: 50.5%.
For O=C(NCc1ccco1)c1cc(-c2cccnc2)nc2ccc(Cl)cc12, the activation was inconclusive: 63.3%.
In the case of CCc1ccc(Nc2nc3ccccc3nc2NS(=O)(=O)c2ccc(NC(C)=O)cc2)cc1, the activation is reported as inconclusive: 53.3%.
With Cc1cc2c([nH]c3ccccc32)c2c1OC(C)(C)C=C2 the activation was inconclusive: 56.7%.
With O=c1cc(CSc2nc3ccccc3[nH]2)c2ccccc2[nH]1 the activation was inconclusive: 55.8%.
For O=c1c2ccccc2ncn1CCCOc1ccccc1[N+](=O)[O-], the activation was active: 91.8%.
For Cc1ccnc(SCC(=O)Nc2cccc(C(F)(F)F)c2)n1, the activation was inactive: -9.68%.
In the case of Cc1cc(C)nc(SCC(O)COc2ccccc2)n1 (centres undefined), the activation is reported as inconclusive: 55.3%.
In the case of Cc1occc1-c1nnc2sc(-c3ccc(-c4ccccc4[N+](=O)[O-])o3)nn12, the activation is reported as inconclusive: 53.6%.
For COc1ccccc1NC(=O)c1cnc(Nc2nc3ccccc3s2)nc1C, the activation was inconclusive: 58.2%.
With OCC1=CC[C@@H]2C=CO[C@@H](O[C@@H]3O[C@H](CO)[C@@H](O)[C@H](O)[C@H]3O)[C@H]12 the activation was inactive: -0.725%.
For Cc1ccc(OCC(=O)Nc2ccc3oc(-c4cccnc4)nc3c2)cc1C, the activation was inconclusive: 52.6%.
In the case of Cc1cc(N(CC(=O)Nc2ccc(Cl)c(Cl)c2)S(C)(=O)=O)ccc1Br, the activation is reported as inactive: -13.8%.
With N#Cc1c(-c2ccccc2)nc2n1CCS2 the activation was inconclusive: 61.1%.
With CC(C)C(=O)Nc1ccccc1C(=O)OCc1cccc([N+](=O)[O-])c1 the activation was inconclusive: 61.7%.
With Cc1cc(OCC(=O)Nc2ccc(O)c(-c3nc4ccccc4o3)c2)ccc1Cl the activation was inactive: -62.5%.
For COC(=O)c1sc2nc(-c3ccccc3)nc(Nc3nc(C)cc(C)n3)c2c1C, the activation was inconclusive: 63%.
In the case of CCOc1ccccc1C(=O)Nc1ccc(S(=O)(=O)Nc2nc(C)cc(C)n2)cc1, the activation is reported as inactive: -3.5%.
In the case of Clc1cccc(C=NC=Nc2cccc(Cl)c2)c1, the activation is reported as active: 72.9%.
With Nc1nc(CSc2ccccn2)nc(Nc2ccccc2)n1 the activation was active: 88.9%.
With Cc1c(NC(=O)CN(c2cc(Cl)ccc2Cl)S(C)(=O)=O)c(=O)n(-c2ccccc2)n1C the activation was inactive: -3.41%.
For Cc1onc(NC(=O)NC(=O)c2ccccc2F)c1Br, the activation was inconclusive: 56.8%.
In the case of Cc1ccc([N+](=O)[O-])c(OCCSc2ncccn2)c1, the activation is reported as inconclusive: 58.3%.
With O=c1c2ccccc2nc(-c2ccco2)n1CCN1CCOCC1 the activation was inactive: 4.28%.
In the case of O=C(CSc1nc(-c2ccccc2)cs1)Nc1ccc(Cl)cc1Cl, the activation is reported as inconclusive: 64.1%.
In the case of Cc1nc(SCC(=O)Nc2ccc(C(=O)O)cc2)[nH]c(=O)c1C, the activation is reported as inactive: -11.8%.
For COc1cc([N+](=O)[O-])ccc1NC(=O)NCc1ccco1, the activation was inconclusive: 52.3%.
In the case of O=C(COc1ccc(CO)cc1)Nc1ccccc1, the activation is reported as active: 65.9%.
For Cc1cccc(NC(=O)CSc2nnc(-c3cccnc3)n2-c2ccccc2)c1C, the activation was inactive: 6.74%.
In the case of O=C(CC1Sc2ccccc2NC1=O)Nc1ccc2c(c1)OCCO2 (centres undefined), the activation is reported as inconclusive: 52.5%.
With O=C(NCCCN1CCCC1=O)Nc1ccc(Cl)cc1 the activation was inconclusive: 53.6%.
In the case of O=C(CS(=O)c1ccccc1[N+](=O)[O-])Nc1cccc(C(F)(F)F)c1 (centres undefined), the activation is reported as active: 70.5%.
For O=C(Nc1sc2c(c1C(=O)NCc1cccnc1)CCCCC2)c1ccccc1, the activation was inconclusive: 55.3%.
For NC(=O)C1CC(=O)N(c2ccc(OCC(=O)Nc3ccccc3F)cc2)C1 (centres undefined), the activation was inconclusive: 51.6%.
In the case of CN1CC(=O)N/C1=N/C(=O)Nc1cccc(Cl)c1, the activation is reported as inconclusive: 51.2%.
In the case of Cc1ccc(-c2noc(CCC(=O)NC(C)(C)C)n2)cc1, the activation is reported as active: 60.5%.
With CCn1c(SCC(=O)c2ccccc2)nnc1-c1ccco1 the activation was inconclusive: 53.4%.
In the case of Cc1cc(C)c(NC(=O)CN(c2ccc(Br)cc2)S(C)(=O)=O)c(C)c1, the activation is reported as inactive: 3.53%.
For CC(=O)N(/N=C1\Sc2ccccc2C1=O)c1ccccc1, the activation was inconclusive: 59.6%.
With CSc1nncc(-c2ccc(Cl)cc2)n1 the activation was active: 63.2%.
For Cc1cc(C)c(C#N)c(SCC(=O)c2cc3ccccc3oc2=O)n1, the activation was inconclusive: 50.3%.
With Cc1cc([N+](=O)[O-])ccc1NC(=O)CSc1nnc(-c2ccccc2)o1 the activation was active: 66.9%.
With Cc1ccc(OCc2nc(N)nc(N(C)C)n2)cc1C the activation was inconclusive: 51.9%.
For Nc1cc(N)nc(SCC(=O)Nc2ccc3ccccc3c2)n1, the activation was inactive: -3.5%.
For O=C(COc1cc(Cl)c(Cl)cc1Cl)Nc1cccnc1, the activation was active: 117%.
With COc1ccc(-c2nc3ccccc3s2)cc1NC(=O)COc1ccc(Cl)cc1Cl the activation was active: 74.1%.
For CCC(SC1=NCCS1)C(=O)Nc1ccc(-c2nc3ccc(C)cc3s2)cc1 (centres undefined), the activation was inconclusive: 56.4%.
For COc1cc(O)c2c(=O)c(O[C@@H]3O[C@H](CO[C@@H]4O[C@@H](C)[C@H](O)[C@@H](O)[C@H]4O)[C@@H](O)[C@H](O)[C@H]3O)c(-c3ccc(O)c(O)c3)oc2c1, the activation was inactive: 8.35%.
With Cc1nn2c(-c3cccc(NC(=O)CN4CCOCC4)c3)nnc2c2ccccc12 the activation was active: 52.8%.
For Cc1ccc(NC(=O)CSc2nnc(-c3cccnc3)n2-c2ccc(Br)cc2)cc1F, the activation was inconclusive: 51.2%.
With Cc1ccc(-c2cnc(-c3ccc(Br)cc3)o2)cc1 the activation was active: 71.5%.
With COc1ccccc1NC(=O)c1c(NC(=O)c2cccnc2)sc(C)c1C the activation was inconclusive: 57.4%.
With O=C(NC(=S)Nc1ccccc1-c1nc2ccccc2s1)c1ccco1 the activation was inconclusive: 50.2%.
For O=C(CSc1nc2ccc(NC(=O)c3ccccc3F)cc2s1)c1cccc([N+](=O)[O-])c1, the activation was active: 75.7%.
In the case of Cc1cc(OCC(=O)Nc2ccccc2C(N)=O)ccc1Br, the activation is reported as inconclusive: 65.6%.
For Cc1ccnc(NC(=O)COc2ccc(Cl)cc2)n1, the activation was inconclusive: 51.4%.
With COc1ccc(-n2c(SCC(=O)Nc3ccc(Cl)cc3C)nnc2-c2ccccc2F)cc1 the activation was inactive: -1.23%.
In the case of COc1ccc(OCC(=O)Nc2ccc(C)cc2[N+](=O)[O-])cc1, the activation is reported as active: 136%.
With CC(=O)c1ccc(NC(=O)CN(c2c(C)cccc2C)S(C)(=O)=O)cc1 the activation was inconclusive: 55.2%.
With O=C(CSc1nnc(-c2ccc(Br)cc2)o1)Nc1ccccc1Cl the activation was active: 75.4%.
For c1ccc(-c2ccc(OCCCCSc3ncccn3)cc2)cc1, the activation was inconclusive: 56.9%.
For C[C@@H]1CN([C@H](C)CO)C(=O)c2cccc(NC(=O)c3ccncc3)c2O[C@@H]1CN(C)Cc1ccc(C(=O)O)cc1, the activation was inactive: -4.88%.
With COc1ccc(Nc2nccc(NCCO)n2)cc1 the activation was inconclusive: 51.1%.
With COc1cccc(OCCSc2nc(N)cc(N)n2)c1 the activation was active: 63.6%.
